For the experiment, the target named is HCV NS3/NS4A protease (strain 1a) (Hepatitis C virus genotype 1a, UniProt P27958). The experiment is described as follows: HCV continuous spectrophotometric protease assay. Type of experiment: biochemical. The settings on record: ranges of Ki* values in nM. From the text:
Spectrophotometric Assay Spectrophotometric assay for the HCV serine protease can be performed on the inventive compounds by following the procedure described by R. Zhang et al, Analytical Biochemistry, 270 (1999) 268-275, the disclosure of which, is incorporated herein by reference. The assay based on the proteolysis of chromogenic ester substrates is suitable for the continuous monitoring of HCV NS3 protease activity. The substrates are derived from the P side of the NS5A-NS5B junction sequence (Ac-DTEDVVX(Nva), where X=A or P) whose C-terminal carboxyl groups are esterified with one of four different chromophoric alcohols (3- or 4-nitrophenol, 7-hydroxy-4-methyl-coumarin, or 4-phenylazophenol). Illustrated below are the synthesis, characterization and application of these novel spectrophotometric ester substrates to high throughput screening and detailed kinetic evaluation of HCV NS3 protease inhibitors.
• Materials: Chemical reagents for assay related buffers are obtained from Sigma Chemical Company (St. Louis, Mo.). Reagents for peptide synthesis were from Aldrich Chemicals, Novabiochem (San Diego, Calif.), Applied Biosystems (Foster City, Calif.) and Perseptive Biosystems (Framingham, Mass.). Peptides are synthesized manually or on an automated ABI model 431A synthesizer (from Applied Biosystems). UV/VIS Spectrometer model LAMBDA 12 was from Perkin Elmer (Norwalk, Conn.) and 96-well UV plates were obtained from Corning (Corning, N.Y.). The prewarming block can be from USA Scientific (Ocala, Fla.) and the 96-well plate vortexer is from Labline Instruments (Melrose Park, Ill.). A Spectramax Plus microtiter plate reader with monochrometer is obtained from Molecular Devices (Sunnyvale, Calif.). […] Protein concentrations are determined by the Biorad dye method using recombinant HCV protease standards previously quantified by amino acid analysis. Prior to assay initiation, the enzyme storage buffer (50 mM sodium phosphate pH 8.0, 300 mM NaCl, 10% glycerol, 0.05% lauryl maltoside and 10 mM DTT) is exchanged for the assay buffer (25 mM MOPS pH 6.5, 300 mM NaCl, 10% glycerol, 0.05% lauryl maltoside, 5 μM EDTA and 5 μM DTT) utilizing a Biorad Bio-Spin P-6 prepacked column. Substrate Synthesis and Purification: The synthesis of the substrates is done as reported by R. Zhang et al, (ibid.) and is initiated by anchoring Fmoc-Nva-OH to 2-chlorotrityl chloride resin using a standard protocol (K. Barlos et al, Int. J. Pept. Protein Res., 37 (1991), 513-520). The peptides are subsequently assembled, using Fmoc chemistry, either manually or on an automatic ABI model 431 peptide synthesizer. […] The combined filtrate and DCM wash is evaporated azeotropically (or repeatedly extracted by aqueous Na2CO3 solution) to remove the acid used in cleavage. The DCM phase is dried over Na2SO4 and evaporated.
The ester substrates are assembled using standard acid-alcohol coupling procedures (K. Holmber et al, Acta Chem. Scand., B33 (1979) 410-412). Peptide fragments are dissolved in anhydrous pyridine (30-60 mg/ml) to which 10 molar equivalents of chromophore and a catalytic amount (0.1 eq.) of para-toluenesulfonic acid (pTSA) were added. Dicyclohexylcarbodiimide (DCC, 3 eq.) is added to initiate the coupling reactions. Product formation is monitored by HPLC and can be found to be complete following 12-72 hour reaction at room temperature. Pyridine solvent is evaporated under vacuum and further removed by azeotropic evaporation with toluene. The peptide ester is deprotected with 95% TFA in DCM for two hours and extracted three times with anhydrous ethyl ether to remove excess chromophore. The deprotected substrate is purified by reversed phase HPLC on a C3 or C8 column with a 30% to 60% acetonitrile gradient (using six column volumes).

Where two headings read alike, the source gives them in different places.

Broadly, the Ki is the dissociation constant of the complex between target and ligand, obtained from inhibition or displacement.

For `CC[C@H]1C[C@]1(NC(=O)[C@@H]1[C@@H]2[C@H](CN1C(=O)[C@@H](NC(=O)NC1(CS(=O)(=O)C(C)(C)C)CCCCC1)C(C)(C)C)C2(C)C)C(=O)C(N)=O` (racemic) [3Z], for the setting “read-out: Ki*”, the Ki is under 500 nM.
On the same count and under the same terms, in the case of `CC[C@H]1C[C@]1(NC(=O)[C@@H]1[C@@H]2[C@H](CN1C(=O)[C@@H](NC(=O)NC(C)(C)C)C(C)(C)C)C2(C)C)C(=O)C(N)=O` (racemic) [7Z] it was 1000 to 5000 nM; in that of `CC[C@@H]1C[C@@]1(NC(=O)[C@@H]1[C@@H]2[C@H](CN1C(=O)[C@@H](NC(=O)N[C@H](CN(C)S(C)(=O)=O)C(C)(C)C)C(C)(C)C)C2(C)C)C(=O)C(=O)NC1CC1` [1Z], 5000 to 10000 nM; in that of `CC[C@H]1C[C@]1(NC(=O)[C@@H]1[C@@H]2[C@H](CN1C(=O)[C@@H](NC(=O)NC1(CS(=O)(=O)C(C)(C)C)CCCCC1)C(C)(C)C)C2(C)C)C(=O)C(=O)NC1CC1` [2Z], 1000 to 5000 nM.
Still for that read-out and setting: next, `CC[C@@H]1C[C@@]1(NC(=O)[C@@H]1[C@@H]2[C@H](CN1C(=O)[C@@H](NC(=O)NC1(CS(=O)(=O)C(C)(C)C)CCCCC1)C(C)(C)C)C2(C)C)C(=O)C(N)=O` [4Z]: under 500 nM; `CC[C@H]1C[C@]1(NC(=O)[C@@H]1[C@@H]2[C@H](CN1C(=O)[C@@H](NC(=O)NC1(CS(=O)(=O)C(C)(C)C)CCCCC1)C(C)(C)C)C2(C)C)C(=O)C(N)=O` [5Z]: 500 to 1000 nM; `CC[C@H]1C[C@]1(NC(=O)[C@@H]1[C@@H]2[C@H](CN1C(=O)[C@@H](NC(=O)N[C@H](CN1C(=O)CC(C)(C)CC1=O)C(C)(C)C)C(C)(C)C)C2(C)C)C(=O)C(=O)NC1CC1` [6Z]: 1000 to 5000 nM.
The same measure, in the same setting: in the case of `CC[C@@H]1C[C@@]1(NC(=O)[C@@H]1[C@@H]2[C@H](CN1C(=O)[C@@H](NC(=O)NC(C)(C)C)C(C)(C)C)C2(C)C)C(=O)C(N)=O` [9Z] it was over 10000 nM.
Turning to `CC[C@@H]1C[C@@]1(NC(=O)[C@@H]1[C@@H]2[C@H](CN1C(=O)[C@@H](NC(=O)N[C@H](CN1C(=O)CC(C)(C)CC1=O)C(C)(C)C)C(C)(C)C)C2(C)C)C(=O)C(N)=O` [10Z], where the note is “read-out: Ki*”, the inhibitory constant (Ki) is under 500 nM.
The same measure, in the same setting: next, `CC[C@H]1C[C@]1(NC(=O)[C@@H]1[C@@H]2[C@H](CN1C(=O)[C@@H](NC(=O)N[C@H](CN1C(=O)CC(C)(C)CC1=O)C(C)(C)C)C(C)(C)C)C2(C)C)C(=O)C(N)=O` [11Z]: under 500 nM; `CCC[C@H]1C[C@@]1(NC(=O)[C@@H]1[C@@H]2[C@H](CN1C(=O)[C@@H](NC(=O)NC1(CS(=O)(=O)C(C)(C)C)CCCCC1)C(C)(C)C)C2(C)C)C(=O)C(=O)NC1CC1` [13Z]: 500 to 1000 nM.
`CCC[C@H]1C[C@]1(NC(=O)[C@@H]1[C@@H]2[C@H](CN1C(=O)[C@@H](NC(=O)NC1(CS(=O)(=O)C(C)(C)C)CCCCC1)C(C)(C)C)C2(C)C)C(=O)C(=O)NC1CC1` [14Z] had a Ki (Ki*) of 1000 to 5000 nM.
In the case of `CCC[C@H]1C[C@@]1(NC(=O)[C@@H]1[C@@H]2[C@H](CN1C(=O)[C@@H](NC(=O)N[C@H](CN1C(=O)CC(C)(C)CC1=O)C(C)(C)C)C(C)(C)C)C2(C)C)C(=O)C(=O)NC1CC1` [16Z], the inhibition constant (Ki) (read-out: Ki*) lay in the range of 500 to 1000 nM.
The same measure, in the same setting: in the case of `CC(C)(C)[C@H](NC(=O)NC1(CS(=O)(=O)C(C)(C)C)CCCCC1)C(=O)N1C[C@H]2[C@@H]([C@H]1C(=O)NC1(C(=O)C(=O)NC3CC3)CC1)C2(C)C` [18Z] it was over 10000 nM; in that of `CN(C[C@@H](NC(=O)N[C@H](C(=O)N1C[C@H]2[C@@H]([C@H]1C(=O)NC1(C(=O)C(=O)NC3CC3)CC1)C2(C)C)C(C)(C)C)C(C)(C)C)S(C)(=O)=O` [19Z], 1000 to 5000 nM.
In the case of `CC1(C)CC(=O)N(C[C@@H](NC(=O)N[C@H](C(=O)N2C[C@H]3[C@@H]([C@H]2C(=O)NC2(C(=O)C(=O)NC4CC4)CC2)C3(C)C)C(C)(C)C)C(C)(C)C)C(=O)C1` [20Z], the Ki (read-out: Ki*) was over 10000 nM.
On the same count and under the same terms, in the case of `CC[C@@H]1CC1(NC(=O)[C@@H]1[C@@H]2[C@H](CN1C(=O)[C@@H](NC(=O)NC1([C@@H](C)S(=O)(=O)C(C)(C)C)CCCCC1)C1(C)CCCCC1)C2(C)C)C(=O)C(=O)NC1CC1` (stereo partly drawn) [21Z] it was 1000 to 5000 nM; in that of `CC[C@H]1CC1(NC(=O)[C@@H]1[C@@H]2[C@H](CN1C(=O)[C@@H](NC(=O)NC1([C@@H](C)S(=O)(=O)C(C)(C)C)CCCCC1)C1(C)CCCCC1)C2(C)C)C(=O)C(=O)NC1CC1` (stereo partly drawn) [22Z], under 500 nM.
Same read-out and setting: in the case of `CC[C@@H]1CC1(NC(=O)[C@@H]1[C@@H]2[C@H](CN1C(=O)[C@@H](NC(=O)NC1([C@@H](C)S(=O)(=O)C(C)(C)C)CCCCC1)C1(C)CCCCC1)C2(C)C)C(=O)C(N)=O` (stereo partly drawn) [23Z] it was under 500 nM.
Still for that read-out and setting: next, `CC[C@H]1CC1(NC(=O)[C@@H]1[C@@H]2[C@H](CN1C(=O)[C@@H](NC(=O)NC1([C@@H](C)S(=O)(=O)C(C)(C)C)CCCCC1)C1(C)CCCCC1)C2(C)C)C(=O)C(N)=O` (stereo partly drawn) [24Z]: under 500 nM; `CCC[C@H]1CC1(NC(=O)[C@@H]1[C@@H]2[C@H](CN1C(=O)[C@@H](NC(=O)NC1(C3CCCS3(=O)=O)CCCCC1)C(C)(C)C)C2(C)C)C(=O)C(=O)NC1CC1` (stereo partly drawn) [25Z]: under 500 nM; `CCC[C@@H]1C[C@@]1(NC(=O)[C@@H]1[C@@H]2[C@H](CN1C(=O)[C@@H](NC(=O)NC1(C3CCCS3(=O)=O)CCCCC1)C(C)(C)C)C2(C)C)C(=O)C(=O)NC1CC1` (stereo partly drawn) [26Z]: 5000 to 10000 nM.
Turning to `CC[C@H]1CC1(NC(=O)[C@@H]1[C@@H]2[C@H](CN1C(=O)[C@@H](NC(=O)NC1(C3CCCS3(=O)=O)CCCCC1)C(C)(C)C)C2(C)C)C(=O)C(N)=O` (stereo partly drawn) [27Z], the Ki (read-out: Ki*) is under 500 nM.
On the same count and under the same terms, in the case of `CC[C@H]1C[C@]1(NC(=O)[C@@H]1[C@@H]2[C@H](CN1C(=O)[C@@H](NC(=O)N[C@H](CN1C(=O)CC(C)(C)CC1=O)C(C)(C)C)C1(C)CCCCC1)C2(C)C)C(=O)C(N)=O` [28Z] it was under 500 nM; in that of `CC[C@@H]1C[C@@]1(NC(=O)[C@@H]1[C@@H]2[C@H](CN1C(=O)[C@@H](NC(=O)N[C@H](CN1C(=O)CC(C)(C)CC1=O)C(C)(C)C)C1(C)CCCCC1)C2(C)C)C(=O)C(N)=O` [29Z], 1000 to 5000 nM; in that of `C[C@H]1CC1(NC(=O)[C@@H]1[C@@H]2[C@H](CN1C(=O)[C@@H](NC(=O)NC1(CS(=O)(=O)C(C)(C)C)CCCCC1)C(C)(C)C)C2(C)C)C(=O)C(=O)NC1CC1` (stereo partly drawn) [30Z], 1000 to 5000 nM.
On the same count and under the same terms, in the case of `C[C@@H]1C[C@@]1(NC(=O)[C@@H]1[C@@H]2[C@H](CN1C(=O)[C@@H](NC(=O)NC1(CS(=O)(=O)C(C)(C)C)CCCCC1)C(C)(C)C)C2(C)C)C(=O)C(=O)NC1CC1` [31Z] it was over 10000 nM; in that of `C[C@H]1C[C@]1(NC(=O)[C@@H]1[C@@H]2[C@H](CN1C(=O)[C@@H](NC(=O)N[C@H](CN1C(=O)CC(C)(C)CC1=O)C(C)(C)C)C(C)(C)C)C2(C)C)C(=O)C(=O)NC1CC1` [32Z], under 500 nM.
Consider `C[C@@H]1C[C@@]1(NC(=O)[C@@H]1[C@@H]2[C@H](CN1C(=O)[C@@H](NC(=O)N[C@H](CN1C(=O)CC(C)(C)CC1=O)C(C)(C)C)C(C)(C)C)C2(C)C)C(=O)C(=O)NC1CC1` [33Z], for which, where the note is “read-out: Ki*”, the inhibition constant Ki is 1000 to 5000 nM.
On the same count and under the same terms, in the case of `CCNC(=O)C(=O)[C@]1(NC(=O)[C@@H]2[C@@H]3[C@H](CN2C(=O)[C@@H](NC(=O)NC2([C@@H](C)S(=O)(=O)C(C)(C)C)CCCCC2)C2Cc4ccccc4C2)C3(C)C)CC1CC` (stereo partly drawn) [34Z] it was under 500 nM; in that of `CCNC(=O)C(=O)C1(NC(=O)[C@@H]2[C@@H]3[C@H](CN2C(=O)[C@H](NC(=O)NC2([C@@H](C)S(=O)(=O)C(C)(C)C)CCCCC2)C2Cc4ccccc4C2)C3(C)C)CC1CC` (stereo partly drawn) [35Z], 1000 to 5000 nM.
For the molecule `CCNC(=O)C(=O)[C@@]1(NC(=O)[C@@H]2[C@@H]3[C@H](CN2C(=O)[C@@H](NC(=O)NC2([C@@H](C)S(=O)(=O)C(C)(C)C)CCCCC2)C2Cc4ccccc4C2)C3(C)C)CC1CC` (stereo partly drawn) [36Z], the Ki (read-out: Ki*) is 1000 to 5000 nM.
Take `CCC1CC1(NC(=O)[C@@H]1[C@@H]2[C@H](CN1C(=O)[C@H](NC(=O)NC1([C@@H](C)S(=O)(=O)C(C)(C)C)CCCCC1)C1Cc3ccccc3C1)C2(C)C)C(=O)C(=O)NCC1CC1` (stereo partly drawn) [38Z]: the Ki (read-out: Ki*) was 1000 to 5000 nM.
